US4742064A, “Antiviral carbocyclic analogs of xylofuranosylpurines” (Regents of the University of Minnesota, priority 1985, dated 1988)
≈ marks a conversion by molar mass, not a printed value.

Key:
HSV-1 (E-377) = test: cytopathogenic effects (CPE)-inhibition procedure, HSV-1, Vero cells; details: Human alphaherpesvirus 1, Vero, read-out: MIC50 (minimum inhibitory concentration required for 50% inhibition of virus-induced CPE), HSV-1 (E-377)
Procedure: (§1) Analogs 9a, 10a, 13a, and 14a were evaluated for in vitro antiviral activity against HSV-1. Analogs 9a and 13a were further evaluated for activity against HSV-2. The analogs were evalulated by a cytopathogenic effects (CPE)-inhibition procedure. The host cell culture systems employed were pre-grown Vero cell monolayers. A virus rating of one or greater is indicative of a compound with a favorable balance between its antiviral effect and its cytotoxicity to the host cells.
(§2) *VR = virus rating: A measurement of selective antiviral activity which
(§3) takes into account the degree of inhibition of virusinduced cytopathogeni
(§4) effects (CPE) and the degree of cytotoxicity produced by the test
(§5) compound, determined by a modification of the method of Ehrlich et al.
(§6) (Ann. N.Y. Acad. Sci. 130: 5-16, 1965). A VR ≥ 1.0 indicates
(§7) definite (+) antiviral activity, a VR of 0.5-0.9 indicates marginal to
(§8) moderate (+) antiviral activity, and a VR < 0.5 usually indicates no (-)
(§9) significant antiviral activity.
(§10) **MIC50 = Minimum inhibitory concentration required for 50%
(§11) inhibition of virusinduced CPE (in μg/ml).

HSV-2 (MS) = test: cytopathogenic effects (CPE)-inhibition procedure, HSV-2, Vero cells; details: Human alphaherpesvirus 2, Vero, read-out: MIC50 (minimum inhibitory concentration required for 50% inhibition of virus-induced CPE), HSV-2 (MS)
Procedure: as §1, §2, §3, §4, §5, §6, §7, §8, §9, §10, §11

| EC50 (HSV-1 (E-377)) [µg/mL] | SMILES | EC50 (HSV-2 (MS)) [µg/mL] |
| --- | --- | --- |
| 66.9 (≈ 238 µM) | Nc1nc(N)c2nnn([C@@H]3C[C@H](CO)[C@H](O)[C@H]3O)c2n1 (relative stereo) [Compound 14a, (d1)-(1 α,2 β,3 α,5 α)-3-(5,7-Diamino-3H-1,2,3-triazalo[4,5-d]pyrimidin-3-yl)-5-(hydroxymethyl)-1,2-cyclopentanediol] |  |
| 85 (≈ 303 µM) | Nc1nc(N)c2ncn([C@@H]3C[C@H](CO)[C@H](O)[C@H]3O)c2n1 (relative stereo) [Compound 10a] |  |

The remaining lines, values behind:

| SMILES | EC50 (HSV-1 (E-377)) [µg/mL] | EC50 (HSV-2 (MS)) [µg/mL] |
| --- | --- | --- |
| Nc1nc2c(ncn2[C@@H]2C[C@H](CO)[C@H](O)[C@H]2O)c(=O)[nH]1 (relative stereo) [Compound 9a, (d1)-2-Amino-1,9-dihydro-9-[(1 α,2 β,3 α,4 α)-2,3-dihydroxy-4-(hydroxymethyl)cyclopentyl]-6H-purin-6-one] | 3 (≈ 10.7 µM) | 23.5 (≈ 83.5 µM) |
| Nc1nc2c(nnn2[C@@H]2C[C@H](CO)[C@H](O)[C@H]2O)c(=O)[nH]1 (relative stereo) [Compound 13a, (d1)-5-Amino-3,6-dihydro-3-[(1 α,2 β,3 α,5 α)-2,3-dihydroxy-4-(hydroxymethyl)cyclopentyl]-7H-1,2,3-triazalo[4,5-d]pyrimidin-7-one] | 60.8 (≈ 215 µM) | 92.2 (≈ 327 µM) |
| Nc1ncnc2c1ncn2[C@@H]1O[C@H](CO)[C@@H](O)[C@@H]1O.O [Ara-A, 9-β-D-arabinofuranosyladenine monohydrate, reference compound] | 21.8 | 40.6 |
